Reference: the supplement of paper PMC9151546
Most values come without repeats; read them as rough.

What was measured:
CHO-K1 [1] = assay: hypodiploid nuclei frequency (% of nucleated events); higher = more hypodiploid events (aneugenic)
Protocol: (§1)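 Flow-cytometric in vitro micronucleus assay (Litron MicroFlow) in CHO-K1 cells in 96-well plates, 19 concentrations (4.5-200 µM, n=1 per concentration). Without S9, cells were exposed for 24 h and sampled at 48 h. With Aroclor 1254-induced rat liver S9, cells were exposed for 3-4 h and sampled at 27-28 h. Read-outs are %MN and %hypodiploid nuclei relative to nucleated events, and relative survival as the nuclei-to-bead ratio versus the 1% DMSO vehicle control (x100).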

CHO-K1 [2] = assay: relative survival (nuclei to bead ratio vs DMSO control) (% of vehicle control); higher = more surviving cells
Protocol: as §1

CHO-K1 [3] = assay: micronucleus frequency (% of nucleated events); higher = more micronuclei (genotoxic)
[4] = concentration: 2.3 (µM), S9 metabolic activation: with S9, exposure time: 3-4 hours
[5] = concentration: 2.3 (µM), S9 metabolic activation: without S9, exposure time: 24 hours
[6] = concentration: 2.87 (µM), S9 metabolic activation: with S9, exposure time: 3-4 hours
[7] = concentration: 2.87 (µM), S9 metabolic activation: without S9, exposure time: 24 hours
[8] = concentration: 3.59 (µM), S9 metabolic activation: with S9, exposure time: 3-4 hours
[9] = concentration: 3.59 (µM), S9 metabolic activation: without S9, exposure time: 24 hours
[10] = concentration: 4.49 (µM), S9 metabolic activation: with S9, exposure time: 3-4 hours
[11] = concentration: 4.49 (µM), S9 metabolic activation: without S9, exposure time: 24 hours
[12] = concentration: 5.6 (µM), S9 metabolic activation: with S9, exposure time: 3-4 hours
[13] = concentration: 5.6 (µM), S9 metabolic activation: without S9, exposure time: 24 hours
[14] = concentration: 7 (µM), S9 metabolic activation: with S9, exposure time: 3-4 hours
[15] = concentration: 7 (µM), S9 metabolic activation: without S9, exposure time: 24 hours
[16] = concentration: 8.8 (µM), S9 metabolic activation: with S9, exposure time: 3-4 hours
[17] = concentration: 8.8 (µM), S9 metabolic activation: without S9, exposure time: 24 hours
[18] = concentration: 11 (µM), S9 metabolic activation: with S9, exposure time: 3-4 hours
[19] = concentration: 11 (µM), S9 metabolic activation: without S9, exposure time: 24 hours
[20] = concentration: 13.7 (µM), S9 metabolic activation: with S9, exposure time: 3-4 hours
[21] = concentration: 13.7 (µM), S9 metabolic activation: without S9, exposure time: 24 hours
[22] = concentration: 17.1 (µM), S9 metabolic activation: with S9, exposure time: 3-4 hours
[23] = concentration: 17.1 (µM), S9 metabolic activation: without S9, exposure time: 24 hours
[24] = concentration: 21.4 (µM), S9 metabolic activation: with S9, exposure time: 3-4 hours
[25] = concentration: 21.4 (µM), S9 metabolic activation: without S9, exposure time: 24 hours
[26] = concentration: 26.7 (µM), S9 metabolic activation: with S9, exposure time: 3-4 hours
[27] = concentration: 26.7 (µM), S9 metabolic activation: without S9, exposure time: 24 hours
[28] = concentration: 33.4 (µM), S9 metabolic activation: with S9, exposure time: 3-4 hours
[29] = concentration: 33.4 (µM), S9 metabolic activation: without S9, exposure time: 24 hours
[30] = concentration: 41.8 (µM), S9 metabolic activation: with S9, exposure time: 3-4 hours
[31] = concentration: 41.8 (µM), S9 metabolic activation: without S9, exposure time: 24 hours
[32] = concentration: 52 (µM), S9 metabolic activation: with S9, exposure time: 3-4 hours
[33] = concentration: 52 (µM), S9 metabolic activation: without S9, exposure time: 24 hours
[34] = concentration: 65 (µM), S9 metabolic activation: with S9, exposure time: 3-4 hours
[35] = concentration: 65 (µM), S9 metabolic activation: without S9, exposure time: 24 hours
[36] = concentration: 82 (µM), S9 metabolic activation: with S9, exposure time: 3-4 hours
[37] = concentration: 82 (µM), S9 metabolic activation: without S9, exposure time: 24 hours
[38] = concentration: 102 (µM), S9 metabolic activation: with S9, exposure time: 3-4 hours
[39] = concentration: 102 (µM), S9 metabolic activation: without S9, exposure time: 24 hours
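For hypodiploid nuclei frequency (% of nucleated events) in this document: hypodiploid nuclei gated on a flow cytometer with 488 nm excitation after SYTOX Green staining, cultures at 37 °C, positive controls vinblastine without S9 and cyclophosphamide with S9.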
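For micronucleus frequency (% of nucleated events) in this document: cells lysed with nuclei stained by SYTOX Green, then micronucleus-gated events counted against nucleated events by flow cytometry with 488 nm excitation.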
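For relative survival (nuclei to bead ratio vs DMSO control) in this document: Lysed-cell nuclei stained with SYTOX Green and counted against counting beads by flow cytometry at 488 nm excitation, with vinblastine (no S9) and cyclophosphamide (plus S9) as positive controls.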

Oc1c(Cl)c(Cl)c(Cl)c(Cl)c1Cl [Pentachlorophenol]
hypodiploid nuclei frequency (CHO-K1 [1]; [4]): 0.24%
hypodiploid nuclei frequency (CHO-K1 [1]; [5]): 0.46%
hypodiploid nuclei frequency (CHO-K1 [1]; [6]): 0.28%
hypodiploid nuclei frequency (CHO-K1 [1]; [7]): 0.6%
hypodiploid nuclei frequency (CHO-K1 [1]; [8]): 0.16%
hypodiploid nuclei frequency (CHO-K1 [1]; [9]): 0.66%
hypodiploid nuclei frequency (CHO-K1 [1]; [10]): 0.38%
hypodiploid nuclei frequency (CHO-K1 [1]; [11]): 0.78%
hypodiploid nuclei frequency (CHO-K1 [1]; [12]): 0.22%
hypodiploid nuclei frequency (CHO-K1 [1]; [13]): 1.1%
hypodiploid nuclei frequency (CHO-K1 [1]; [14]): 0.14%
hypodiploid nuclei frequency (CHO-K1 [1]; [15]): 0.84%
hypodiploid nuclei frequency (CHO-K1 [1]; [16]): 0.2%
hypodiploid nuclei frequency (CHO-K1 [1]; [17]): 0.94%
hypodiploid nuclei frequency (CHO-K1 [1]; [18]): 0.14%
hypodiploid nuclei frequency (CHO-K1 [1]; [19]): 0.98%
hypodiploid nuclei frequency (CHO-K1 [1]; [20]): 0.18%
hypodiploid nuclei frequency (CHO-K1 [1]; [21]): 0.84%
hypodiploid nuclei frequency (CHO-K1 [1]; [22]): 0.26%
hypodiploid nuclei frequency (CHO-K1 [1]; [23]): 0.74%
hypodiploid nuclei frequency (CHO-K1 [1]; [24]): 0.02%
hypodiploid nuclei frequency (CHO-K1 [1]; [25]): 0.72%
hypodiploid nuclei frequency (CHO-K1 [1]; [26]): 0.24%
hypodiploid nuclei frequency (CHO-K1 [1]; [27]): 0.94%
hypodiploid nuclei frequency (CHO-K1 [1]; [28]): 0.22%
hypodiploid nuclei frequency (CHO-K1 [1]; [29]): 1.34%
hypodiploid nuclei frequency (CHO-K1 [1]; [30]): 0.2%
hypodiploid nuclei frequency (CHO-K1 [1]; [31]): 1.12%
hypodiploid nuclei frequency (CHO-K1 [1]; [32]): 0.32%
hypodiploid nuclei frequency (CHO-K1 [1]; [33]): 1.56%
hypodiploid nuclei frequency (CHO-K1 [1]; [34]): 0.32%
hypodiploid nuclei frequency (CHO-K1 [1]; [35]): 1.48%
hypodiploid nuclei frequency (CHO-K1 [1]; [36]): 0.24%
hypodiploid nuclei frequency (CHO-K1 [1]; [37]): 2.32%
hypodiploid nuclei frequency (CHO-K1 [1]; [38]): 0.5%
hypodiploid nuclei frequency (CHO-K1 [1]; [39]): 1.3%
relative survival (CHO-K1 [2]; [4]): 145
relative survival (CHO-K1 [2]; [5]): 150
relative survival (CHO-K1 [2]; [6]): 142
relative survival (CHO-K1 [2]; [7]): 155
relative survival (CHO-K1 [2]; [8]): 127
relative survival (CHO-K1 [2]; [9]): 118
relative survival (CHO-K1 [2]; [10]): 148
relative survival (CHO-K1 [2]; [11]): 128
relative survival (CHO-K1 [2]; [12]): 151
relative survival (CHO-K1 [2]; [13]): 119
relative survival (CHO-K1 [2]; [14]): 127
relative survival (CHO-K1 [2]; [15]): 110
relative survival (CHO-K1 [2]; [16]): 133
relative survival (CHO-K1 [2]; [17]): 119
relative survival (CHO-K1 [2]; [18]): 121
relative survival (CHO-K1 [2]; [19]): 114
relative survival (CHO-K1 [2]; [20]): 150
relative survival (CHO-K1 [2]; [21]): 98.8
relative survival (CHO-K1 [2]; [22]): 132
relative survival (CHO-K1 [2]; [23]): 114
relative survival (CHO-K1 [2]; [24]): 113
relative survival (CHO-K1 [2]; [25]): 111
relative survival (CHO-K1 [2]; [26]): 97.4
relative survival (CHO-K1 [2]; [27]): 97.9
relative survival (CHO-K1 [2]; [28]): 102
relative survival (CHO-K1 [2]; [29]): 121
relative survival (CHO-K1 [2]; [30]): 92.9
relative survival (CHO-K1 [2]; [31]): 95.7
relative survival (CHO-K1 [2]; [32]): 115
relative survival (CHO-K1 [2]; [33]): 82.3
relative survival (CHO-K1 [2]; [34]): 95.8
relative survival (CHO-K1 [2]; [35]): 83.2
relative survival (CHO-K1 [2]; [36]): 97.2
relative survival (CHO-K1 [2]; [37]): 82.3
relative survival (CHO-K1 [2]; [38]): 78
relative survival (CHO-K1 [2]; [39]): 54.9
micronucleus frequency (CHO-K1 [3]; [4]): 2.2%
micronucleus frequency (CHO-K1 [3]; [5]): 2.76%
micronucleus frequency (CHO-K1 [3]; [6]): 1.84%
micronucleus frequency (CHO-K1 [3]; [7]): 2.06%
micronucleus frequency (CHO-K1 [3]; [8]): 1.52%
micronucleus frequency (CHO-K1 [3]; [9]): 2.34%
micronucleus frequency (CHO-K1 [3]; [10]): 1.7%
micronucleus frequency (CHO-K1 [3]; [11]): 2.32%
micronucleus frequency (CHO-K1 [3]; [12]): 1.18%
micronucleus frequency (CHO-K1 [3]; [13]): 4.22%
micronucleus frequency (CHO-K1 [3]; [14]): 1.6%
micronucleus frequency (CHO-K1 [3]; [15]): 3.2%
micronucleus frequency (CHO-K1 [3]; [16]): 1.54%
micronucleus frequency (CHO-K1 [3]; [17]): 3.1%
micronucleus frequency (CHO-K1 [3]; [18]): 1.18%
micronucleus frequency (CHO-K1 [3]; [19]): 2.54%
micronucleus frequency (CHO-K1 [3]; [20]): 1.3%
micronucleus frequency (CHO-K1 [3]; [21]): 4.52%
micronucleus frequency (CHO-K1 [3]; [22]): 1.46%
micronucleus frequency (CHO-K1 [3]; [23]): 3.76%
micronucleus frequency (CHO-K1 [3]; [24]): 1.14%
micronucleus frequency (CHO-K1 [3]; [25]): 2.9%
micronucleus frequency (CHO-K1 [3]; [26]): 1.38%
micronucleus frequency (CHO-K1 [3]; [27]): 2.62%
micronucleus frequency (CHO-K1 [3]; [28]): 1.18%
micronucleus frequency (CHO-K1 [3]; [29]): 3.24%
micronucleus frequency (CHO-K1 [3]; [30]): 1.66%
micronucleus frequency (CHO-K1 [3]; [31]): 2.44%
micronucleus frequency (CHO-K1 [3]; [32]): 1.64%
micronucleus frequency (CHO-K1 [3]; [33]): 3.74%
micronucleus frequency (CHO-K1 [3]; [34]): 2.22%
micronucleus frequency (CHO-K1 [3]; [35]): 3.68%
micronucleus frequency (CHO-K1 [3]; [36]): 1.76%
micronucleus frequency (CHO-K1 [3]; [37]): 3.1%
micronucleus frequency (CHO-K1 [3]; [38]): 1.82%
micronucleus frequency (CHO-K1 [3]; [39]): 2.72%
